The text below walks through data of paper PMC4336329 (PLoS ONE, 2015).

In all, about 310,000 compounds went through this assay and about 14,000 (4.5%) showed an effect of 50% or more. The effect is printed as a negative number. This is one part of the list.
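Also: peak tail current of the secondary pulse compared with the same well before compound.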

For this test, the target named is human ether-à-go-go-related gene (hERG) potassium channel (human, UniProt Q12809). The test can be described thus: primary screen, population patch clamp on CHO cells stably expressing hERG.
human ether-à-go-go-related gene (hERG) potassium channel, sequence (Q12809 whole entry, looked up): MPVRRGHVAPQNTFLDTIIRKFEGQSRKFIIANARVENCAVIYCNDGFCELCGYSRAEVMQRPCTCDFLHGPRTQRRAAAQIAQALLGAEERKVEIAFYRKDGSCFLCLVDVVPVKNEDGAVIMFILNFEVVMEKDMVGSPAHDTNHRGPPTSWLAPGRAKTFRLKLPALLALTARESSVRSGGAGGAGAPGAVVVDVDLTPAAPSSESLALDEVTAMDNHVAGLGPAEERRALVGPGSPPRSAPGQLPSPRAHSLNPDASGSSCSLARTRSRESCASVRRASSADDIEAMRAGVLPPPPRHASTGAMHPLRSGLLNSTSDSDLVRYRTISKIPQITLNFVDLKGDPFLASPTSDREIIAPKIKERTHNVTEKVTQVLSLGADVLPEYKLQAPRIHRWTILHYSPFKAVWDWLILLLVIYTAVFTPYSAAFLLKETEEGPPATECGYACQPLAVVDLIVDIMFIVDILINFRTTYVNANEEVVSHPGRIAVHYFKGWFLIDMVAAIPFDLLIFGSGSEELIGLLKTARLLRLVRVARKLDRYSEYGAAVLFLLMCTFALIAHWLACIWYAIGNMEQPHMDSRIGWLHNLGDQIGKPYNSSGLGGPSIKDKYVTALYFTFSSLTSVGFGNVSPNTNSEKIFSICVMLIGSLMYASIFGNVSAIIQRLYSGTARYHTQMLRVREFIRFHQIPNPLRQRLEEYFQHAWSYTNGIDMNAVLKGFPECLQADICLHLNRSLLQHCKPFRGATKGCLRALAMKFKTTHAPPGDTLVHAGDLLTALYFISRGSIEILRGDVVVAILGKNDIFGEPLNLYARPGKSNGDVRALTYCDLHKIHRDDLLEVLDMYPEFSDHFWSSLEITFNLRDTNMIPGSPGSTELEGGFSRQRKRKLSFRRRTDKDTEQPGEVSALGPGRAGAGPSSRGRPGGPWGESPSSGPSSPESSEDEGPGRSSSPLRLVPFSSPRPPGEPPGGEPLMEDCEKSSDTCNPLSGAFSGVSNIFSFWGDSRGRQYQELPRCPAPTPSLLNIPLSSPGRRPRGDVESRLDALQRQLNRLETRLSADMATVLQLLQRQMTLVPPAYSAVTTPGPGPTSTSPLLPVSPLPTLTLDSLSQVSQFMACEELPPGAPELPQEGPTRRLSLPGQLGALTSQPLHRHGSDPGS
With `CCOC(=O)N1CCN(S(=O)(=O)c2ccc(C(=O)N(CCN(C)C)c3nc4ccc(CC)cc4s3)cc2)CC1.Cl`, the “hERG current change (%, negative = inhibition) at 10uM” value is reported as -51.9%.

Turning to `Cc1ccccc1[C@@H]1C(C#N)=C(N)S[C@H]1C(=O)c1ccccc1`, the “hERG current change (%, negative = inhibition) at 10uM” value worked out at 1.89%.

For `CC1=CSC2=NC(=O)/C(=C\c3cccn3-c3ccc([N+](=O)[O-])cc3)C(=N)N12`, the “hERG current change (%, negative = inhibition) at 10uM” value came out at 12.9%.

For `O=C([C@@H]1CCCN1C(=O)c1cccs1)N1CCN(S(=O)(=O)c2cccc(F)c2)CC1`, the “hERG current change (%, negative = inhibition) at 10uM” value is on record as 4.84%.

As for `COc1ccccc1N(C)S(=O)(=O)c1ccc(C(=O)NCC2CCCCC2)cc1`, the “hERG current change (%, negative = inhibition) at 10uM” value is -3.05%.

Take `CN(Cc1cnn(C)c1)C(=O)C1CCCCC1C(=O)O` (centres unmarked): the “hERG current change (%, negative = inhibition) at 10uM” value is listed as -4.4%.

Consider `COC(=O)C(C)N1C(=O)S/C(=C\c2ccc(-c3ccc(C(=O)O)cc3C)o2)C1=O` (centres unmarked), for which the “hERG current change (%, negative = inhibition) at 10uM” value worked out at 15.5%.

With `Cc1ccnc(Sc2ccc([N+](=O)[O-])cn2)n1`, the “hERG current change (%, negative = inhibition) at 10uM” value worked out at 6.93%.

Consider `Cc1ccc(/C=C2\SC(=S)N(c3c(C)n(C)n(-c4ccccc4)c3=O)C2=O)cc1`, for which the “hERG current change (%, negative = inhibition) at 10uM” value was -21.3%.

On to `Cc1ccc(S(=O)(=O)NCC2CCC(C(=O)NCc3ccccn3)CC2)cc1` (centres unmarked), for which the “hERG current change (%, negative = inhibition) at 10uM” value is -2.03%.

As for `CS(=O)(=O)n1nc(OC(=O)c2cccc3ccccc23)cc1N`, the “hERG current change (%, negative = inhibition) at 10uM” value was -19.5%.

For the molecule `CC(=O)CC(=O)Nc1ncc(C(F)(F)F)cc1Cl`, the “hERG current change (%, negative = inhibition) at 10uM” value worked out at 15.9%.

Regarding `CCN1C(=O)CC(N2CCN(c3ccc(OC)cc3)CC2)C1=O` (centres unmarked), the “hERG current change (%, negative = inhibition) at 10uM” value was -9.88%.

Consider `CCCC(=O)N1c2ccccc2NC2=C(C(=O)CCC2)C1c1ccc(F)cc1` (centres unmarked), for which the “hERG current change (%, negative = inhibition) at 10uM” value worked out at 10.9%.

With `Cc1cc(=O)oc2cc(Oc3ccc([N+](=O)[O-])cc3[N+](=O)[O-])ccc12`, the “hERG current change (%, negative = inhibition) at 10uM” value was -64.4%.

Turning to `O=C(C1CC(=O)N(c2ccc(F)cc2)C1)N1CCCCCC1` (centres unmarked), the “hERG current change (%, negative = inhibition) at 10uM” value is -6.27%.

On to `O=C(NCc1nc2ccccc2[nH]1)C1=C[C@H](c2coc3ccccc3c2=O)C[C@H](OCc2ccc(CO)cc2)O1`, for which the “hERG current change (%, negative = inhibition) at 10uM” value is on record as -21.5%.

Consider `O=C(Cn1nnc(-c2ccccc2)n1)OC1CCOC1=O` (centres unmarked), for which the “hERG current change (%, negative = inhibition) at 10uM” value turned out to be 10.7%.

As to `COc1ccc(CCN(C)C(=O)C2CCN(Cc3ccc(C)cc3)CC2)cc1OC.O=C(O)C(=O)O`, the “hERG current change (%, negative = inhibition) at 10uM” value is -60.8%.

`NNC(=O)CNS(=O)(=O)c1ccc([N+](=O)[O-])cc1`: the “hERG current change (%, negative = inhibition) at 10uM” value was 17.4%.

Turning to `O=c1[nH]c(SCc2ccccc2)nc2[nH]ncc12`, the “hERG current change (%, negative = inhibition) at 10uM” value is on record as 1.64%.

On to `CC(C)C(=O)Nc1ccc(NC(=O)c2cccc(F)c2)cn1`, for which the “hERG current change (%, negative = inhibition) at 10uM” value was -2.18%.

Take `Cc1cc(C)cc(C(=O)NCC(=O)N2CCN(C(c3ccccc3)c3ccccc3)CC2)c1`: the “hERG current change (%, negative = inhibition) at 10uM” value worked out at 8.55%.

With `CC(C)OCCCNC(=O)CNC(=O)c1ccc(Cl)c(Cl)c1`, the “hERG current change (%, negative = inhibition) at 10uM” value is reported as 18.4%.

For `CC(=C/c1ccco1)/C=N/NC(=O)Cc1cccn1C`, the “hERG current change (%, negative = inhibition) at 10uM” value is listed as -6.63%.

With `CCn1nc(C(=O)NC2=NCCS2)c2ccccc2c1=O`, the “hERG current change (%, negative = inhibition) at 10uM” value is 13.9%.

For `CC(C)C[C@H](NC(=O)N1CC(=O)Nc2ccccc21)C(=O)N[C@H](C(=O)O)c1ccccc1`, the “hERG current change (%, negative = inhibition) at 10uM” value is given as 13.6%.

Regarding `COc1c(Cl)cc(C(=O)O)cc1Cl`, the “hERG current change (%, negative = inhibition) at 10uM” value was 0.549%.

Take `Cn1nc(C(=O)Nc2cccc(C(F)(F)F)c2)ccc1=O`: the “hERG current change (%, negative = inhibition) at 10uM” value is -6.26%.

`COc1ccc(/C=N/NC(=O)c2ccco2)cc1OCc1ccccc1`: the “hERG current change (%, negative = inhibition) at 10uM” value turned out to be 4.5%.

In the case of `O=C(/C=C/c1ccccc1)Nc1ccc(C(=O)N2CCCCC2)cc1`, the “hERG current change (%, negative = inhibition) at 10uM” value is given as -4.21%.

For the molecule `Cc1cccc(N2C(=O)Cc3ccccc3C2=O)c1`, the “hERG current change (%, negative = inhibition) at 10uM” value is -1.33%.

In the case of `c1cnc2ccc(-c3ccc4ncccc4c3)cc2c1`, the “hERG current change (%, negative = inhibition) at 10uM” value is listed as -5.61%.

As for `CC(=O)Nc1ccc(S(=O)(=O)N2CCN(CCN3CCOCC3)CC2)cc1Cl`, the “hERG current change (%, negative = inhibition) at 10uM” value amounted to 10.5%.

Regarding `O=C(COC(=O)C1(c2ccccc2F)CCCC1)NC1CCS(=O)(=O)C1` (centres unmarked), the “hERG current change (%, negative = inhibition) at 10uM” value is -11.2%.

For the molecule `COc1cccc(CNS(=O)(=O)c2ccc3c(c2)C(C)(C)C(=O)N3C)c1`, the “hERG current change (%, negative = inhibition) at 10uM” value is reported as -8.36%.

For `CC(=O)Nc1nc2c(s1)C(=O)NCC(C)(C)C2`, the “hERG current change (%, negative = inhibition) at 10uM” value is reported as 17.3%.

Take `C[C@H]1C=C(C(=O)NC2CC2)O[C@@H](OCc2ccc(CO)cc2)C1`: the “hERG current change (%, negative = inhibition) at 10uM” value was -0.916%.

For `COc1ccc(-c2nn(-c3ccccc3C)cc2CNCc2cccnc2)cc1F`, the “hERG current change (%, negative = inhibition) at 10uM” value was -38.3%.

As to `CN(Cc1ccccc1)S(=O)(=O)c1ccc2[nH]cc(C(=O)NCC3CCCO3)c(=O)c2c1` (centres unmarked), the “hERG current change (%, negative = inhibition) at 10uM” value is -14.6%.

Consider `CC(C)(C)c1ccc(C(=O)c2c[nH]c(C(=O)NCc3cccnc3)c2)cc1`, for which the “hERG current change (%, negative = inhibition) at 10uM” value is recorded as -2%.

With `CCC(=O)Nc1nc2nc(-c3ccccc3)cc(-c3ccccc3)n2n1`, the “hERG current change (%, negative = inhibition) at 10uM” value is given as 2.99%.

`O=C(Nc1cccnc1)c1ccc(N2CCOCC2)c([N+](=O)[O-])c1`: the “hERG current change (%, negative = inhibition) at 10uM” value was 21.7%.

As for `Cc1ccc(O)c(NC(=S)NC(=O)COc2ccc(Br)cc2)c1`, the “hERG current change (%, negative = inhibition) at 10uM” value is 17.8%.
